# Laboratory results published in article PMC5196188.
# The chains behind the UniProt entries cited, without tags or fusion partners. Where a name states a change or a piece, a line headed by the entry shows the natural chain unless it says otherwise. Residues count along the entry.
# UniProt Q6NSJ2: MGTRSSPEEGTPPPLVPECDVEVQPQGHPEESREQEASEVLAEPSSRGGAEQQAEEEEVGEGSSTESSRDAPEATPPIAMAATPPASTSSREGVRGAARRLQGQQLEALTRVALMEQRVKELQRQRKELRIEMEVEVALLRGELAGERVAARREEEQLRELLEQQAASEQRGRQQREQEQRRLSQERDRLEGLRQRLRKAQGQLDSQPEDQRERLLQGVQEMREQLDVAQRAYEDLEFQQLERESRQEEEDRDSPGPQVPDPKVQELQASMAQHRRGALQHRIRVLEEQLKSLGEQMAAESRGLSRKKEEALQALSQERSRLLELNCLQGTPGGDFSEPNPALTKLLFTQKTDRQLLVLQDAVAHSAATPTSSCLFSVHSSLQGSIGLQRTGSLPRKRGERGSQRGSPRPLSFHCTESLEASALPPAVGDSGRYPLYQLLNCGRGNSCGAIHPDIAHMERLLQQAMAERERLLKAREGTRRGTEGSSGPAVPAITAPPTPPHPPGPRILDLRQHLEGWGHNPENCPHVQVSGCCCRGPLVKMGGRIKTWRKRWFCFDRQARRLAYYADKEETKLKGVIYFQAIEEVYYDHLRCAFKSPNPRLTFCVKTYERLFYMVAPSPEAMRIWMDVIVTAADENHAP
# UniProt Q00987: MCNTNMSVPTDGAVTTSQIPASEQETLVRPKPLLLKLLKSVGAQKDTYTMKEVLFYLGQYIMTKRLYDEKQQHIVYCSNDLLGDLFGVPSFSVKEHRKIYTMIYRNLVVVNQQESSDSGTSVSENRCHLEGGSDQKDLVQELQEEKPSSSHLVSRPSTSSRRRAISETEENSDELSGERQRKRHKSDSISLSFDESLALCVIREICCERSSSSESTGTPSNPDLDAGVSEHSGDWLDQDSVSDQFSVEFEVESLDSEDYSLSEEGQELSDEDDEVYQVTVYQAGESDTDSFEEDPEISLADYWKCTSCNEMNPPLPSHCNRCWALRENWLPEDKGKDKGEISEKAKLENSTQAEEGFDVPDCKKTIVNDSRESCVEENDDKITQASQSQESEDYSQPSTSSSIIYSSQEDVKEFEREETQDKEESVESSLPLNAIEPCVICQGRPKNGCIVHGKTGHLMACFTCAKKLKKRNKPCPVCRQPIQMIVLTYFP
# GST-MDM2 aa 1-301: residues 1-301 of Q00987
# GST-MDM2 aa 1-150: residues 1-150 of Q00987
# GST-MDM2 aa 284-491: residues 284-491 of Q00987
# These are yes or no findings as the source states them, for the method shown. For part of these data: Binding seen in cells or lysates may run through a third protein. Some entries that bind do so weakly or less than the wild type.
# What was measured:
# [1] = target: PHLDB3-Flag (pleckstrin homology-like domain, family B, member 3) (human) (UniProt Q6NSJ2); assay: co-IP; HEK293 cells transfected with PHLDB3-Flag and/or HA-MDM2; reverse co-IPs; lysis buffer 50 mM Tris/HCl pH 7.5, 0.5% NP-40, 1 mM EDTA, 150 mM NaCl; 4 °C
# GST-MDM2 = GST-MDM2 (UniProt Q00987); assay: pull-down; GST-MDM2 or fragments (500 ng) on glutathione-Sepharose 4B beads, purified His-PHLDB3 in solution; 4 °C for 4 h (methods) or one hour at room temperature; washes in 50 mM Tris/HCl pH 8.0, 0.5% NP-40, 1 mM EDTA, 150 mM NaCl, 10% glycerol; immunoblot with anti-PHLDB3; both …
# GST-MDM2 aa 1-150 = GST-MDM2 aa 1-150 (UniProt Q00987); assay: as above
# GST-MDM2 aa 1-301 = GST-MDM2 aa 1-301 (UniProt Q00987); assay: as above
# GST-MDM2 aa 284-491 = GST-MDM2 aa 284-491 (UniProt Q00987); assay: as above
# [2] = target: HA-MDM2 (mouse double minute 2 homolog) (UniProt Q00987); assay: co-IP; HEK293 cells transfected with PHLDB3-Flag and/or HA-MDM2; reverse co-IPs; lysis buffer 50 mM Tris/HCl pH 7.5, 0.5% NP-40, 1 mM EDTA, 150 mM NaCl; 4 °C
# C464A MDM2 mutant = C464A MDM2 mutant (UniProt Q00987); assay: co-IP; Supplementary Fig. 3; MDMX-MDM2 complexes with rising amounts of ectopic PHLDB3 (panel a); C464A MDM2 with PHLDB3 (b) and MDMX (c); cells and antibodies not shown; method of panels b, c taken from panel a
# [3] = target: MDM2 (Supplementary Fig. 3) (UniProt Q00987); assay: as above
# [4] = target: endogenous MDM2 (human (endogenous in HCT116)) (UniProt Q00987); assay: co-IP; endogenous proteins; HCT116 p53+/+ cells treated with Doxorubicin for 16 h and MG132 for 6 h; IgG as control
substance,measurement,setting,value
HA-MDM2 (mouse double minute 2 homolog) (from UniProt Q00987 1-491),binding,[1],binds
His-PHLDB3 (from UniProt Q6NSJ2 1-640),binding,GST-MDM2,binds
same,binding,GST-MDM2 aa 1-150,no binding
same,binding,GST-MDM2 aa 1-301,no binding
same,binding,GST-MDM2 aa 284-491,binds
"PHLDB3-Flag (pleckstrin homology-like domain, family B, member 3) (from UniProt Q6NSJ2 1-640)",binding,[2],binds
ectopic PHLDB3 (Supplementary Fig. 3) (from UniProt Q6NSJ2 1-640),binding,C464A MDM2 mutant,binds
same,binding,[3],binds
endogenous PHLDB3 (from UniProt Q6NSJ2 1-640),binding,[4],binds
